In PubChem BioAssay AID488969 (Vanderbilt High Throughput Screening Facility, 2010) one finds z-score data, which are given here for 108 compounds.

Over roughly 110,000 compounds, “z-score” has its median near -0.1; the highest 2% begin near 2. This is one part of the list. Activity calls are given as the source filed them.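 How the source made its calls: active means z-score in the third read window above 3 or below -3; inactive means the rest.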

This experiment deals with Metabotropic glutamate receptor 8 (Rattus norvegicus) (UniProt P70579). Nature of the experiment: rat mGluR8 modulators via GIRK flux, primary screen, cell-based, thallium flux, HTS (AID 488969). The conditions noted are these: HEK293 rat mGluR8, GIRK (G protein-gated inwardly rectifying potassium channel) thallium flux, FluoZin2; at 10 µM; stronger effect = higher value; submaximal glutamate (EC20) added with thallium.
Sequence of UniProt P70579 (P70579 whole entry, looked up): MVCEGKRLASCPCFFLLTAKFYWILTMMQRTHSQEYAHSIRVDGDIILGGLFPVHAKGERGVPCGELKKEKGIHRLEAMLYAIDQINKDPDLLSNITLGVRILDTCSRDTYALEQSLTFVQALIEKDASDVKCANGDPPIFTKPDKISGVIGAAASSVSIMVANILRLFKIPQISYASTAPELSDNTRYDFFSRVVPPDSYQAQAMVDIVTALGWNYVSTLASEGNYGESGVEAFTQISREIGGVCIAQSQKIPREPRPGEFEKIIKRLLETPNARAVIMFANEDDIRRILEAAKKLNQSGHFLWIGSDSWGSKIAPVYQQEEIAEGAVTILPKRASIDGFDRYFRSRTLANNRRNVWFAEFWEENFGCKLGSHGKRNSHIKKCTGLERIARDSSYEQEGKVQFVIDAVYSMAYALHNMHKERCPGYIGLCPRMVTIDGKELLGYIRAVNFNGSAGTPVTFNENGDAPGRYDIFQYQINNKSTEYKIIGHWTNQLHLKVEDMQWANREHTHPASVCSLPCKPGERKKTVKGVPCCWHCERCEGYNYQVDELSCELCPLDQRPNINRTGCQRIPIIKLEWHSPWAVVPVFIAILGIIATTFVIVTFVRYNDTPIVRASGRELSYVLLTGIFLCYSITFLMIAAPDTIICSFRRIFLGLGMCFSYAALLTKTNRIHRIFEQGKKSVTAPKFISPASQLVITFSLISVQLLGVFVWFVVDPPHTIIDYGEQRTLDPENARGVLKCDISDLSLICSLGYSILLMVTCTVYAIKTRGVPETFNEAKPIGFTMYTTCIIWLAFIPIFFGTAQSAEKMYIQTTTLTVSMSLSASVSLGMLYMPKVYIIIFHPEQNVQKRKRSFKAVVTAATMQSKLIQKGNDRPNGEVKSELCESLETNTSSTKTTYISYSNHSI
Regarding `Cc1ccc(NC(=O)N2CCC(C(=O)NCC(C)C)CC2)cc1`, the z-score was found to be 0.0784. Then `CN(C)c1ccc(/C=C(/C(=O)c2ccc(Cl)cc2Cl)n2cncn2)cc1`, with -0.266; and `Cc1ccc(Nc2nnc(SCC(=O)Nc3ccc(S(=O)(=O)N4CCOCC4)cc3)s2)cc1`, with 0.283; and `COC(=O)C1=C(C)N(C)C(C)=C(C(=O)OC)C1c1ccc(Cl)cc1`, with -0.451. `COc1cc2c(cc1OC)C(c1ccc(-c3ccc(Cl)cc3Cl)o1)=NCC2` yielded a z-score of -0.106. For the compound `Clc1ccc(OCCn2ccnc2)c(Br)c1`, the z-score is 0.203. `Cc1ccc(C)c(NC(=O)CSc2nc3c(oc4ccccc43)c(=O)n2-c2ccccc2)c1` displayed a z-score of -0.0703. Take `Cc1ccc(N2C(=O)c3ccccc3C2(O)c2ncc[nH]2)cc1` (stereo not drawn): the z-score was -0.3.

In turn, `O=S(=O)(c1cccc2cccnc12)N1CCN(Cc2ccc3c(c2)OCO3)CC1` registered a z-score of 0.0765. Compound `O=C(NCCc1csc(-c2cccnc2)n1)c1cccc2ccccc12` yielded a z-score of 0.472. In turn, `O=C1CCC(=O)N1CCc1c[nH]c2ccccc12` showed a z-score of 0.917. For the compound `c1ccc(C(Cc2nc(-c3ccccn3)no2)c2ccccc2)cc1`, the z-score came out at 0.0811. Turning to `Cc1ccc(-c2cc3nc(-c4ccc(Br)cc4)cc(N)n3n2)cc1`, the z-score is -0.0381. In turn, `COC(=O)C1=C(NC(=O)C(C)(C)C)CCS1` showed a z-score of -0.000537.

The compound `COc1cccc(-n2c(SCC(=O)Nc3cc(C)on3)nc3c([nH]c4ccccc43)c2=O)c1` showed a z-score of -0.154. In turn, `COc1ccc2oc(=O)c(C(=O)Oc3ccc(NC(C)=O)cc3)cc2c1` had a z-score of -0.117. In the case of `Cn1nc(C(F)(F)F)c2cc(NC(=O)OCc3ccc(F)cc3)sc21`, the z-score was active: 9.32.

The compound `Cc1ccccc1OCCn1c(CCNC(=O)C(C)C)nc2ccccc21` came in with a z-score of -0.179. For the compound `Cc1cccc(NC(=S)NCCC(c2ccccc2)c2ccccc2)c1`, the z-score was -0.348. `Cc1ccc(S(=O)(=O)C2(C(=O)N3CCCCCC3)CC2)cc1` gave a z-score of -0.0403. In turn, `O=C(CSCc1cnn(-c2ccccc2)c1-n1cccc1)NCc1cccs1` had a z-score of -0.163. In the case of `CC(=O)N(c1ccccc1C)C1CCCC1` it was -0.199; in that of `O=C(N/N=C/c1cccc(OCC(=O)N2CCCC2)c1)C(=O)Nc1ccccc1F`, -0.51. As to `COc1ccc(S(=O)(=O)Cc2ccc(C(=O)N3CCN(C(=O)c4ccco4)CC3)o2)cc1`, the z-score amounted to 0.0311.

In turn, `COc1ccc(Br)cc1C(=O)Nc1ccc(N2CCN(S(C)(=O)=O)CC2)cc1` displayed a z-score of 0.261. `COc1ccccc1C/C(N)=N/OC(=O)COc1cccc(C)c1` showed a z-score of -0.225. In the case of `CC1CCN(c2ccc(N3C(=O)C4CCCCC4C3=O)cc2[N+](=O)[O-])CC1` (stereo not drawn), the z-score stood at 0.00622. `Nc1nc(CC(=O)CSc2ccc(Cl)cc2)nc(Nc2ccc(F)cc2)n1` yielded a z-score of -0.282. In the case of `C/C(=N\OC(=O)c1cccc(Cl)c1)c1sc(C)nc1C` it was 0.214. Take `COCCNC(=O)CSC1=N/C(=C/c2ccc(Cl)c(Cl)c2)C(=O)N1c1ccccc1F`: the z-score is 0.268.

Compound `C=CCNC(=O)C1CCN(S(=O)(=O)c2ccccc2)CC1` showed a z-score of 0.5. Compound `Cc1cc(C)n(-c2cc(N3CCN(S(=O)(=O)c4ccc(Br)cc4)CC3)ccc2[N+](=O)[O-])n1` yielded a z-score of 0.016. `CC1(C)CC(=O)C(C(C#Cc2ccccc2)C2=C(O)CC(C)(C)CC2=O)=C(O)C1` had a z-score of -0.00387. On to `COc1ccc(N(C(=O)C2CCCCC2)C2C=CS(=O)(=O)C2)c(OC)c1` (stereo not drawn), for which the z-score came to 0.112. `Cc1cc([N+](=O)[O-])ccc1-c1ccc(/C=N/NC(=O)Cc2ccccc2)o1` gave a z-score of -0.12. Take `COc1ccc(NC(=S)SC)cc1OC`: the z-score is active: 3.35. As for `CCOC(=O)CSc1nc2c(c(-c3ccc(C)o3)c1C#N)CCCC2`, the z-score was -0.199. In the case of `O=C(CSc1nnc(-c2ccccn2)n1Cc1ccco1)Nc1ccc2c(c1)OCO2` it was -0.265; in that of `Cn1c(/C(C#N)=C/c2ccc(-c3ccc(S(N)(=O)=O)cc3)o2)nc2ccccc21`, -0.341. `Cc1ccc(/C=C/C(=O)Nc2cc(S(=O)(=O)N3CCCCCC3)ccc2OCC(F)(F)F)o1` displayed a z-score of 0.00396.

As for `COC(=O)c1ccc(Cn2nnc3c(sc4nc(N5CCOCC5)c5c(c43)CCCC5)c2=O)o1`, the z-score was -0.0753.

Turning to `CC(/C=N/NC(=O)c1cc(C(C)C)[nH]n1)=C\c1ccccc1`, the z-score is -0.581. With `CCCCCc1nc2sc3c(c2c(=O)n1NC(=O)c1ccc([N+](=O)[O-])cc1)CC(C)(C)OC3`, the z-score came out at 0.0875. Then `Cc1cccc(NS(=O)(=O)c2cc(C(=O)N3CCN(C)CC3)ccc2C)c1`, with 0.154; and `COc1ccccc1C(CC(=O)Nc1ccccc1C)c1ccc(OC(C)C)cc1` (stereo not drawn), with 0.159. Take `CC(C)CN(C(=O)c1nn(C)c(=O)c2ccccc12)c1nc2ccccc2s1`: the z-score was found to be 0.13. The compound `Cc1ccc(N/C=C/C(=O)C(C)(C)C)c(O)c1` showed a z-score of -0.228. With `CC(=O)N1CCC(=O)N(C(C)C)c2ccccc21`, the z-score turned out to be 0.519. `O=C(CN(c1cccc(C(F)(F)F)c1)S(=O)(=O)c1ccc(Cl)c([N+](=O)[O-])c1)NCc1ccccc1Cl` showed a z-score of -0.209.

Compound `O=C(O)c1ccc(NS(=O)(=O)c2cc(C(=O)O)ccc2Br)cc1` registered a z-score of -0.467. In the case of `Cc1ccc(-c2cc(C(=O)NCc3cccnc3)no2)cc1` it was 0.224; in that of `Nc1nnnn1/N=C/c1cccc(OCc2ccccc2Cl)c1`, -0.00468. For `O=C(O)C1C2C=CC(C2)C1C(=O)NC1CCN(Cc2ccccc2)CC1` (stereo not drawn), the z-score came to 0.581. Then `COC(=O)CSC1=NS(=O)(=O)c2ccccc21`, with -2.06; and `CCOC(=O)C(C)On1c(-c2cccc(Cl)c2)nc2ccc([N+](=O)[O-])cc21` (stereo not drawn), with 0.66. The compound `Cc1cc(NCCN2CCOCC2)n2ncc(-c3ccc(Cl)cc3)c2n1` gave a z-score of -0.0491. Then `O=C(CCC1COc2ccccc2O1)Nc1ncccc1O` (stereo not drawn), with -0.575. `COc1ccc2cc(C(c3nnnn3C3CCCCC3)N3CCCCCC3)c3nnnn3c2c1` (stereo not drawn) displayed a z-score of -0.929. For the compound `CCNC(=S)N/N=C(\C)c1cc2ccccc2o1`, the z-score was active: 8.26.

On to `Cc1ccc(C)n1-c1ccc(C(=O)NN)cc1`, for which the z-score was found to be 2.5. With `O=C(CN1CCCCCC1)Nc1ccc(Br)cc1`, the z-score was -0.108.

For the compound `COC(=O)c1ccc(Oc2c(C)oc3cc(OCc4cnn(-c5ccccc5)c4)ccc3c2=O)cc1`, the z-score was -1.6. In the case of `N#CCSc1nnc(-c2ccccc2O)n1Cc1ccccc1` it was -0.264. With `NC(=O)COC(=O)c1ccccc1Nc1ccc(SC(F)F)cc1`, the z-score is -0.248.

`COc1ccc(-c2cc(-c3nnc(-c4ccncc4)o3)c3ccccc3n2)cc1` came in with a z-score of 0.255. Then `COc1cc(NS(=O)(=O)N2CCCC2)cc(OC)c1OC`, with 0.599. `N#CCCN(C(=O)Nc1ccc(Cl)cc1)c1ccccc1` gave a z-score of -0.486. `CCOc1cc(/C=N/NC(=O)C(=O)NC)cc(Br)c1O` displayed a z-score of -0.261.

In the case of `COC(=O)CN(c1ccc(C)cc1)S(=O)(=O)c1c(C)[nH]c(=O)[nH]c1=O`, the z-score is -0.359. Regarding `CCCCCC(=O)N(CN1C(=O)CCC1=O)c1ccccc1`, the z-score is -0.238.

Regarding `Cc1ccc2[nH]c(-c3ccccc3)c(CN(C)C)c(=O)c2c1`, the z-score is -0.255. In the case of `O=C(CCNC(=O)c1ccc(Cl)cc1)Nc1ccc(F)cc1F`, the z-score was -0.198.

The compound `O=C(Nc1ccccc1Cl)N1CCN(c2ncccn2)CC1` registered a z-score of 0.0134. Compound `COc1ccc(S(=O)(=O)Nc2ccc(CC#N)cc2)cc1` had a z-score of 0.0758. `CCn1c(COc2ccc(C)cc2)nnc1SCC(=O)Nc1ccc(S(N)(=O)=O)cc1`: the z-score was -1.15. On to `CCSc1ccc(NC(=O)c2cccnc2)cc1`, for which the z-score is 1.15.

In the case of `O=C(Nc1nc2ccccc2[nH]1)C1CCN(S(=O)(=O)c2cccs2)CC1`, the z-score was -0.487. Take `COc1ccc(OC)c(NC(=O)Cn2c(CCC(=O)O)ccc2-c2cccs2)c1`: the z-score was -0.116. In turn, `Cc1ccc(Sc2c(C)nn(C(=O)c3cccc(S(=O)(=O)N4CCOCC4)c3)c2C)cc1` showed a z-score of 0.262. Compound `CCN1CCN(CCNC(=O)CCCCCn2c(=O)[nH]c3cc(C(=O)OC)ccc3c2=O)CC1` had a z-score of -0.206. In the case of `O=C(NCCN1CCOCC1)c1cc(-c2ccc(Cl)cc2)on1` it was 0.332; in that of `CC1CC(C)CN(CCCNC(=O)Cc2c(C(=O)O)[nH]c3ccccc23)C1` (stereo not drawn), 0.334; in that of `CCOc1ccc(C2C(=O)N(C3CCCCC3)CC(=O)N2CC2CCCO2)cc1OC` (stereo not drawn), -0.778. For the compound `O=C(CCn1cccc1)Nc1ccc(F)cc1`, the z-score was -0.0216. Turning to `Cc1cc(Cl)ccc1OC(C)C(=O)NCCCCc1ccccc1` (stereo not drawn), the z-score was -0.116. Then `O=C(O)C1CCN(S(=O)(=O)c2ccc(Oc3ccccc3)cc2)CC1`, with -0.051; and `O=C(/C=C/c1ccccc1)NCCOc1ccccc1`, with -0.291; and `CCOc1cc(/C=N/O)cc(Br)c1OC`, with 0.682. `Oc1cccc(-c2nc3c4c(ncn3n2)-c2ccccc2CC42CCCC2)c1` gave a z-score of -0.0248. In the case of `N=c1oc2ccccc2cc1-c1nc2ccccc2c(=O)[nH]1` it was 0.218; in that of `CCOc1c2ccc(C(=O)NCCc3ccc(C)cc3)cc2nn1CC`, -0.287; in that of `COc1cccc(CN2CCN(c3cccc(C(F)(F)F)c3)CC2)c1OC`, 0.95. For `CCn1c(/C=C/Nc2ccccc2)[n+](CC)c2cc(Cl)c(Cl)cc21`, the z-score was -0.581. The compound `CC1=NN(c2nc(C)cc(C)n2)C(=O)C1CCC(C)C` (stereo not drawn) registered a z-score of 0.328. `CCC1CCCCN1C(=O)c1nn2cccnc2c1Cl` (stereo not drawn) returned a z-score of 0.18. Then `O=C1CC(N2CCCCC2)C(=O)N1c1ccccc1` (stereo not drawn), with -0.119. In the case of `O=C(/C=C/c1ccccc1)NCC(=O)N/N=C\c1cccnc1` it was 0.429; in that of `Cc1cccc(N(CC(=O)Nc2ccccc2F)S(C)(=O)=O)c1`, -0.443; in that of `Cc1cccc(/C=N/n2c(-c3ccccn3)n[nH]c2=S)c1`, -0.174. In the case of `COc1ccc(C(=O)Nc2sc3c(c2C(=O)NCc2ccco2)CCCC3)cc1OC` it was -1.01. In turn, `Cc1cccc(NC(=O)c2ccc(S(=O)(=O)C(F)F)cc2)c1C` yielded a z-score of -0.191. For the compound `CN(C)c1oc(-c2ccccc2)nc1C#N`, the z-score is -0.0974. `Cc1c(C#N)c2ncnc(-c3ccccc3)c2n1-c1ccccc1` showed a z-score of -0.446. In the case of `Cc1scc(C(=O)N2CCN(S(C)(=O)=O)CC2)c1-c1ccccc1` it was 0.0619; in that of `O=C(CN(Cc1cccs1)C(=O)CNS(=O)(=O)c1ccccc1)NCc1ccco1`, 0.0572. With `CCC(C(=O)NC1CCCC1)N(Cc1ccco1)C(=O)Cn1nnc(-c2ccc(C)cc2)n1` (stereo not drawn), the z-score is -0.303. The compound `C#CCn1c(=NC(=O)c2ccc(Cl)s2)sc2cccc(OC)c21` returned a z-score of -0.074. The compound `O=C(Cn1c(=O)[nH]c2ccsc2c1=O)NC1CCCCC1` gave a z-score of -0.236.
